From the supplement of paper PMC7335073
The full ranking holds about 4,100 sequences; the median of “relative CpG methylation activity (normalised to average over all NNNCGNNN flanks)” is about 0.87, and the highest 2% start at about 2.4. This is one part of the list.

target: DNMT3A catalytic domain (mouse) (UniProt O88508); test: relative CpG methylation activity (normalised to average over all NNNCGNNN flanks) (relative (1 = mean)); higher = more methylation of the central CpG; details: system: in vitro, murine catalytic domain; CpG state: hemimethylated substrate pool; residues: 608-908
Experimental: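 Deep enzymology: a pool of dsDNA substrates with a central CpG flanked by 10 random nucleotides on each side was methylated by the murine DNMT3A or DNMT3B catalytic domain (0.8 mM SAM, 37 °C, 60 min). Methylation was then read out by hairpin ligation, bisulfite conversion and NGS. Values are the average methylation of each NNNCGNNN context (±3 flanks; the outer flanks are random and averaged over), normalised to the overall mean, so 1 = average activity.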

Sequence	relative CpG methylation activity
GTACGGGT	1.85
GTACGTAA	2.1
ACCCGTGT	0.68
TATCGTGA	0.406
ATGCGGTC	0.906
GCCCGGCG	0.38
TGCCGGAC	0.573
GCGCGATC	1.35
CCTCGCAT	1.36
CAGCGCCT	1.1
TACCGCTC	2.06
TGGCGCTT	0.882
TTGCGGGT	1.3
TCCCGTAG	0.462
GCACGTAC	1.53
TATCGACT	0.753
ATGCGAGC	1.92
CCGCGAGA	0.625
GAGCGGCT	0.556
TAGCGGAT	0.278
GTCCGGTT	1.48
GAGCGCAA	0.614
TCGCGGAG	0.182
GTGCGGGT	1.12
GAACGGCA	0.738

Sequence	relative CpG methylation activity
GGCCGCCC	1.79
AAGCGTCA	0.81
ATTCGGCA	0.844
CTACGCCG	2.5
TATCGACA	0.702
TATCGCCA	1.03
CCCCGGAT	0.86
TGCCGCCC	1.86
GCCCGCAT	1.18
GAACGGTC	0.986
GAACGCAG	0.413
CATCGGGT	0.263
GGTCGAAT	0.287
TCCCGGAG	0.432
TCTCGCGA	0.76
GTACGGAT	1.33
ACACGATT	1.29
CACCGTCA	1.17
GCGCGCTA	1.21
GTACGTCT	2.06
GGTCGAAC	0.51
AGACGAAA	0.559
TCGCGCAG	0.513
AAGCGAAT	0.339
CCTCGGGA	0.774

Sequence	relative CpG methylation activity
TACCGTCG	1.23
AACCGTCA	1.39
GTCCGACT	1.26
TCTCGTGG	0.025
GCCCGGGG	0.455
CTCCGATA	1.57
CGGCGCCT	1.51
GTCCGATC	2.18
TAACGGTA	0.728
CATCGCTC	1.82
CGCCGTTG	0.227
GATCGTTC	0.508
AGTCGTCC	1.29
CACCGTTC	1.25
AATCGTTA	0.333
TCTCGGGT	0.851
CCTCGCCT	2.37
GGCCGACT	1.02
ACTCGAAC	1.18
CAACGGAA	1.01
GTACGGCA	1.81
CCACGGTG	1.05
CCCCGACT	1.08
GTCCGGCA	1.64
TAGCGACT	0.49

Sequence	relative CpG methylation activity
CACCGACG	0.743
AGGCGAGC	1.01
CGTCGTCC	1.43
CAACGCAA	0.864
ATTCGGCG	0.659
AGGCGTAT	0.144
CTTCGCCC	1.88
TAGCGTGC	0.134
GATCGTCG	0.625
CAACGGGT	0.889
TAGCGAGG	0.294
TGGCGCAC	0.846
CCCCGCCC	2.18
AGTCGGAC	0.436
GAGCGCTC	1.3
GTGCGACA	1.52
CGGCGCAG	0.391
GAGCGACC	0.754
TTGCGGGG	0.921
TGGCGTCC	1.09
AAACGGTA	0.536
GCCCGAGT	1.17
ACCCGAGG	0.606
GAACGCAT	0.638
GAGCGAGA	0.37

Sequence	relative CpG methylation activity
GATCGTAG	0.156
AGGCGACC	0.55
GAGCGACG	0.63
CGCCGATA	0.761
GGTCGGGG	0.025
TCACGCGT	0.964
GGACGCGA	0.481
ACTCGCCT	2.31
AGTCGGCG	0.479
ACTCGTGC	0.588
TCGCGCTT	1.08
ACACGATG	0.901
TAGCGACA	0.498
ACACGAAT	1.04
GGACGCAC	1.05
CAGCGAAT	0.31
GGTCGTGG	0.319
GGTCGCGA	0.354
CACCGGTG	0.433
CGACGGAG	0.179
GGACGGGC	0.536
CAGCGCGG	0.084
TAGCGACG	0.377
GCACGCGT	1.15
TTGCGAGC	1.57

Sequence	relative CpG methylation activity
TTGCGCGA	1.22
CGCCGAGG	0.61
TGACGTCC	1.32
TCTCGTCT	1.63
GTGCGGTG	0.882
TAACGACG	0.623
TATCGTCT	1.27
ATGCGGGA	0.761
AACCGCTC	1.99
GTTCGAGT	0.592
TGCCGTGA	0.388
CTGCGCCG	1.93
CTCCGGCG	1.55
GAGCGGTG	0.476
GTTCGATA	0.857
ATCCGGGC	1.22
TGGCGACC	0.806
AACCGACG	0.868
TAGCGCCG	0.827
GAACGCAA	0.701
ACTCGTTC	1.29
TGTCGAGG	0.417
GTGCGTGA	0.99
AACCGGAT	0.63
TGTCGTAG	0.46

Sequence	relative CpG methylation activity
GAACGGTT	0.355
CGACGATG	0.429
TGTCGCCG	0.913
TTACGACC	2.05
TAACGAAA	0.751
AGTCGTTA	0.561
GAGCGATA	0.521
GTGCGCCA	2.05
AAACGAAG	0.237
CGACGTTC	1.01
GACCGCGG	0.58
AGTCGATA	0.441
TTTCGCTT	1.99
GGGCGCTC	1.22
AGACGGAG	0.27
ATACGCTA	2.15
CACCGCCA	1.32
TCTCGGGC	0.588
GAACGATA	0.529
CAACGACA	0.845
CGCCGTGG	0.287
GGGCGCAA	0.9
